Measured values taken from the supplement of paper PMC8813932.
Structures can show the parent of a compound that is named as a salt. ± gives the standard deviation of the averaged measurements. Some of the results follow. Single values are uncertain, as repeats are few or missing.

Tests used:
Experiment in all cases: log2 surviving fraction relative to plate median (drug vs vehicle, or drug+dl922-947 vs dl922-947 alone); ovarian cancer lines: OVCAR4 is platinum-sensitive while Ov4Cis resists cisplatin and Ov4Carbo carboplatin; higher = more cell survival
Conditions in all cases: compound concentration: 10 uM, 192 h
OVCAR4 = tested on: OVCAR4
Ov4Carbo = tested on: Ov4Carbo
Ov4Cis = tested on: Ov4Cis
[1] = dl922-947 oncolytic adenovirus co-treatment: MOI 10
[2] = dl922-947 oncolytic adenovirus co-treatment: none

| SMILES | log2 surviving fraction (OVCAR4; [1]) | log2 surviving fraction (OVCAR4; [2]) | log2 surviving fraction (Ov4Carbo; [1]) | log2 surviving fraction (Ov4Carbo; [2]) | log2 surviving fraction (Ov4Cis; [1]) | log2 surviving fraction (Ov4Cis; [2]) |
| --- | --- | --- | --- | --- | --- | --- |
| C[C@@H]1CN(c2c(F)c(N)c3c(=O)c(C(=O)O)cn(C4CC4)c3c2F)C[C@H](C)N1 [Sparfloxacin] | 0.287 ± 1.4 | -0.108 ± 0.29 | 0.405 | 0.43 | -1.64 | -0.903 |
| CN1CCc2cccc3c2[C@H]1Cc1ccc(O)c(O)c1-3 [R-(-)-Apomorphine HCl Hemihydrate] | -0.471 ± 0.45 | -0.791 ± 0.88 | -0.31 | -0.771 | -0.553 | -1.67 |
| Cc1nccn1CC1CCc2c(c3ccccc3n2C)C1=O (stereo unspecified) [Ondansetron hydrochloride (Zofran)] | -0.451 ± 0.98 | 0.0516 ± 0.037 | 0.605 | -1.1 | 0.166 | 0.0694 |
| COC(=O)C1=C(C)NC(C)=C(C(=O)OCC(C)C)C1c1ccccc1[N+](=O)[O-] (stereo unspecified) [Nisoldipine (Sular)] | -1.65 ± 0.54 | -1.36 ± 0.89 | -0.438 | -3.43 | -0.395 | -1.96 |
| CN(C)CCc1c[nH]c2ccc(C[C@H]3COC(=O)N3)cc12 [Zolmitriptan (Zomig)] | 0.547 ± 0.33 | 0.349 ± 0.31 | -1.41 | 0.741 | 0.139 | 0.804 |
| C[C@@H]1C[C@H]2[C@@H]3CCC4=CC(=O)C=C[C@]4(C)[C@@]3(Cl)[C@@H](O)C[C@]2(C)[C@@]1(OC(=O)c1ccco1)C(=O)CCl [Mometasone furoate] | 0.81 ± 0.67 | -1.12 ± 0.73 | -0.188 | -1.53 | 1.55 | -1.43 |
| CCOC(=O)[C@H](CCc1ccccc1)N[C@@H](C)C(=O)N1C(=O)N(C)C[C@H]1C(=O)O [Imidapril (Tanatril)] | 0.296 ± 0.8 | 0.0463 ± 0.064 | -0.749 | 0.623 | -0.189 | -0.00176 |
| C=CC[C@@H]1/C=C(\C)C[C@H](C)C[C@H](OC)[C@H]2O[C@@](O)(C(=O)C(=O)N3CCCC[C@H]3C(=O)O[C@H](/C(C)=C/[C@@H]3CC[C@@H](O)[C@H](OC)C3)[C@H](C)[C@@H](O)CC1=O)[C@H](C)C[C@@H]2OC [FK-506 (Tacrolimus)] | 0.408 ± 0.19 | -0.254 ± 0.84 | 0.831 | -0.179 | 0.244 | -0.265 |
| COc1cnc(NS(=O)(=O)c2ccc(N)cc2)nc1 [Sulfameter (Bayrena)] | -0.58 ± 0.69 | 0.065 ± 0.72 | 0.041 | 0.000634 | 0.386 | 0.273 |
| CC(C)(O/N=C(\C(=O)N[C@@H]1C(=O)N2C(C(=O)[O-])=C(C[n+]3ccccc3)CS[C@H]12)c1csc(N)n1)C(=O)O [Ceftazidime Pentahydrate] | 0.108 ± 0.33 | 0.133 ± 0.22 | 0.814 | 0.112 | 0.386 | 0.376 |
| C[C@]12CC[C@@H]3c4ccc(O)cc4CC[C@H]3[C@@H]1CC[C@@H]2O [Estradiol] | 0.409 ± 0.28 | -0.211 ± 0.13 | 0.0836 | 0.472 | 0.374 | -0.0736 |
| OC(CCN1CCCC1)(c1ccccc1)C1CCCCC1 (stereo unspecified) [Procyclidine HCl] | -0.803 ± 0.39 | -0.383 ± 0.36 | -0.853 | -0.252 | -1.24 | -1.49 |
| C[C@]12CCC(=O)C=C1C=C[C@@H]1[C@@H]2CC[C@@]2(C)[C@H]1CC[C@@]2(O)CCC(=O)O [Potassium Canrenoate] | -0.478 ± 0.018 | -0.739 ± 0.32 | -0.448 | -0.337 | 0.0819 | 0.213 |
| Cc1onc(-c2c(Cl)cccc2Cl)c1C(=O)N[C@@H]1C(=O)N2[C@@H]1SC(C)(C)[C@@H]2C(=O)O [Dicloxacillin Sodium] | 0.7 ± 0.3 | 1.12 ± 0.41 | -0.465 | 0.00263 | 0.526 | 1.06 |
| CCN1CCN(C(=O)N[C@@H](C(=O)N[C@@H]2C(=O)N3[C@@H]2SC(C)(C)[C@@H]3C(=O)O)c2ccccc2)C(=O)C1=O [Piperacillin Sodium] | 0.295 ± 0.42 | 0.899 ± 0.43 | -0.784 | 0.382 | -0.386 | -0.427 |
| NCCS(=O)(=O)O [Taurine] | -0.137 ± 0.15 | -0.694 ± 0.54 | 2.05 | -0.306 | -0.146 | -0.631 |
| CC(C)C[C@H](NC(=O)[C@H](CCc1ccccc1)NC(=O)CN1CCOCC1)C(=O)N[C@@H](Cc1ccccc1)C(=O)N[C@@H](CC(C)C)C(=O)[C@@]1(C)CO1 [Carfilzomib (PR-171)] | -10.4 ± 1.3 | -12.3 ± 7 | -8.58 | -12.3 | -10.1 | -16.2 |
| C[C@]12CCC3=C4CCC(=O)C=C4CC[C@H]3[C@@H]1CC[C@@]2(O)CC#N [Dienogest] | 1.56 ± 0.78 | 2.53 ± 2.6 | 1.24 | 2.68 | 0.852 | 0.908 |
| N[C@H](C(=O)O)[C@H](O)c1ccc(O)c(O)c1 [Droxidopa (L-DOPS)] | 0.0483 ± 0.54 | 0.926 ± 0.83 | -0.0855 | 1.08 | -0.285 | -1.71 |
| CC(C(=O)O)c1ccc2c(c1)[nH]c1ccc(Cl)cc12 (stereo unspecified) [Carprofen] | 0.565 ± 0.1 | 0.212 ± 0.68 | 0.312 | -0.506 | -0.925 | 0.742 |
| O.O.O.O.O=C([O-])CC(O)(CC(=O)[O-])C(=O)[O-].[Li+].[Li+].[Li+] [Lithium Citrate] | 0.342 ± 0.14 | 0.395 ± 1 | -0.193 | -0.034 | -0.0339 | 0.817 |
| O=C(CCCN1CC=C(n2c(=O)[nH]c3ccccc32)CC1)c1ccc(F)cc1 [Droperidol] | 0.42 ± 0.99 | 0.354 ± 0.81 | 0.777 | -1.32 | -0.0512 | -0.633 |
| CO[C@@]1(NC(=O)C(C(=O)O)c2ccc(O)cc2)C(=O)N2C(C(=O)O)=C(CSc3nnnn3C)CO[C@@H]21 (stereo partly specified) [Moxalactam Disodium] | 0.311 ± 0.0043 | 0.285 ± 0.45 | 0.798 | 0.0398 | 0.66 | 0.226 |
| CC(C)CN(C[C@@H](O)[C@H](Cc1ccccc1)NC(=O)O[C@H]1CCOC1)S(=O)(=O)c1ccc(N)cc1 [Amprenavir (Agenerase)] | 0.557 ± 0.64 | 0.453 ± 0.48 | 0.28 | 0.474 | 0.584 | 0.456 |
| Cc1cc(C(C)(C)C)c(O)c(C)c1CC1=NCCN1 [Oxymetazoline hydrochloride] | 0.521 ± 0.2 | 0.215 ± 0.0039 | 0.559 | 0.211 | 0.474 | -0.103 |
| C[C@]12CCC(=O)C=C1CC[C@@H]1[C@@H]2[C@@H](O)C[C@@]2(C)[C@H]1CC[C@]2(O)C(=O)CO [Hydrocortisone (Cortisol)] | 0.401 ± 0.14 | 0.619 ± 0.14 | -0.482 | -1.88 | 0.299 | 0.292 |
